Measurements from publication PMC12820563.
The other results are listed elsewhere or left out. The list includes weakly bound sequences.

What follows are sequences tested against T1, MBP-FoxP3dN (UniProt Q99JB6) (assay: PD-seq (MBP pull-down with sequencing)). Settings: 20 mM Tris-HCl pH 7.5, 100 mM NaCl, 1.5 mM MgCl2, 0.4 uM protein, 0.1 uM dsDNA library, 30 min, room temperature, amylose pull-down; high values mean tight binding; double strand, one strand shown.
T1 sequence: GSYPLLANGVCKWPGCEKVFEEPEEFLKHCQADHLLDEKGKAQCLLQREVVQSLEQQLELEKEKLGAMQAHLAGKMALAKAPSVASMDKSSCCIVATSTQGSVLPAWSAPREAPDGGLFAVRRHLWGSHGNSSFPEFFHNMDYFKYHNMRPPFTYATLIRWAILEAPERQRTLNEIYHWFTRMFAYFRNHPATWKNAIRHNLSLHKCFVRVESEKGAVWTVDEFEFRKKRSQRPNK

Q: For “GATGATTGTTCTCCCAGCTGATGAATTTCCCGCCTCGAGTAAACAAATTTTCCTAATCTTTCTGTTCAAGCGCCATCTAC”, which binding signal (RPM ratio (pull-down/input)) is on record?
A: The binding signal (RPM ratio (pull-down/input)) was 0.44.

Q: Which binding signal (RPM ratio (pull-down/input)) does the source give for “GATGATTGTTCTCCCAGCTGATGAATTCTTGCCCTCGAGTAAACAAATTTTCCTAATCTTTCTGTTCAAGCGCCATCTAC” here?
A: Its binding signal (RPM ratio (pull-down/input)) is 0.351.

Q: “GATGATTGTTCTCCCAGCTGATGAATTCCGTCTTTCGAGTAAACAAATTTTCCTAATCTTTCTGTTCAAGCGCCATCTAC” was tested. Which binding signal (RPM ratio (pull-down/input)) did it give?
A: The binding signal (RPM ratio (pull-down/input)) was 0.717.

Q: With “GATGATTGTTCTCCCAGCTGATGAATTGTCCTTTTCGAGTAAACAAATTTTCCTAATCTTTCTGTTCAAGCGCCATCTAC” as the sequence, how does the binding signal (RPM ratio (pull-down/input)) read?
A: The binding signal (RPM ratio (pull-down/input)) was 0.39.

Q: “GATGATTGTTCTCCCAGCTGATGAATTTATTACGTCGAGTAAACAAATTTTCCTAATCTTTCTGTTCAAGCGCCATCTAC” was tested. Which binding signal (RPM ratio (pull-down/input)) did it give?
A: The binding signal (RPM ratio (pull-down/input)) was 1.22.

Q: Which binding signal (RPM ratio (pull-down/input)) does the source give for “GATGATTGTTCTCCCAGCTGATGAATTAGCTTCATCGAGTAAACAAATTTTCCTAATCTTTCTGTTCAAGCGCCATCTAC” here?
A: Its binding signal (RPM ratio (pull-down/input)) is 0.544.

Q: How did the binding signal (RPM ratio (pull-down/input)) turn out when “GATGATTGTTCTCCCAGCTGATGAATTTGCATTTTCGAGTAAACAAATTTTCCTAATCTTTCTGTTCAAGCGCCATCTAC” was run?
A: The binding signal (RPM ratio (pull-down/input)) was 5.38.

Q: How did the binding signal (RPM ratio (pull-down/input)) turn out when “GATGATTGTTCTCCCAGCTGATGAATTGATCTCATCGAGTAAACAAATTTTCCTAATCTTTCTGTTCAAGCGCCATCTAC” was run?
A: The binding signal (RPM ratio (pull-down/input)) was 0.374.

Q: How did the binding signal (RPM ratio (pull-down/input)) turn out when “GATGATTGTTCTCCCAGCTGATGAATTCCATTTCTCGAGTAAACAAATTTTCCTAATCTTTCTGTTCAAGCGCCATCTAC” was run?
A: Its binding signal (RPM ratio (pull-down/input)) is 0.561.

Q: Which binding signal (RPM ratio (pull-down/input)) does the source give for “GATGATTGTTCTCCCAGCTGATGAATTGGGTGATTCGAGTAAACAAATTTTCCTAATCTTTCTGTTCAAGCGCCATCTAC” here?
A: The binding signal (RPM ratio (pull-down/input)) was 0.949.

Q: How did the binding signal (RPM ratio (pull-down/input)) turn out when “GATGATTGTTCTCCCAGCTGATGAATTTATTCTGTCGAGTAAACAAATTTTCCTAATCTTTCTGTTCAAGCGCCATCTAC” was run?
A: The binding signal (RPM ratio (pull-down/input)) was 0.533.

Q: “GATGATTGTTCTCCCAGCTGATGAATTACTCCGTTCGAGTAAACAAATTTTCCTAATCTTTCTGTTCAAGCGCCATCTAC” was tested. Which binding signal (RPM ratio (pull-down/input)) did it give?
A: The binding signal (RPM ratio (pull-down/input)) was 0.302.

Q: Which binding signal (RPM ratio (pull-down/input)) does the source give for “GATGATTGTTCTCCCAGCTGATGAATTACACAGTTCGAGTAAACAAATTTTCCTAATCTTTCTGTTCAAGCGCCATCTAC” here?
A: Its binding signal (RPM ratio (pull-down/input)) is 0.552.

Q: Which binding signal (RPM ratio (pull-down/input)) does the source give for “GATGATTGTTCTCCCAGCTGATGAATTTTATGAGTCGAGTAAACAAATTTTCCTAATCTTTCTGTTCAAGCGCCATCTAC” here?
A: The binding signal (RPM ratio (pull-down/input)) was 1.67.

Q: With “GATGATTGTTCTCCCAGCTGATGAATTGCAAACGTCGAGTAAACAAATTTTCCTAATCTTTCTGTTCAAGCGCCATCTAC” as the sequence, how does the binding signal (RPM ratio (pull-down/input)) read?
A: The binding signal (RPM ratio (pull-down/input)) was 0.843.

Q: “GATGATTGTTCTCCCAGCTGATGAATTCTAACACTCGAGTAAACAAATTTTCCTAATCTTTCTGTTCAAGCGCCATCTAC” was tested. Which binding signal (RPM ratio (pull-down/input)) did it give?
A: The binding signal (RPM ratio (pull-down/input)) was 0.577.

Q: Which binding signal (RPM ratio (pull-down/input)) does the source give for “GATGATTGTTCTCCCAGCTGATGAATTTCCAGACTCGAGTAAACAAATTTTCCTAATCTTTCTGTTCAAGCGCCATCTAC” here?
A: The binding signal (RPM ratio (pull-down/input)) was 0.194.

Q: How did the binding signal (RPM ratio (pull-down/input)) turn out when “GATGATTGTTCTCCCAGCTGATGAATTACCCTGATCGAGTAAACAAATTTTCCTAATCTTTCTGTTCAAGCGCCATCTAC” was run?
A: Its binding signal (RPM ratio (pull-down/input)) is 0.253.
